Laboratory results published in PubChem BioAssay (NCI).
Values joined by “and” are separate entries in the source; they are usually repeats but may differ in a detail not shown here. Equal entries are not always repeated.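 Grown in 96-well plates, cells were treated for 48 hours with each compound at five concentrations. Insufficient inhibition: endpoint recorded as highest concentration tested. GI50 marks 50% less growth. At the TGI there is no net growth.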

Tested on: NCI-H322M lung
Test: NCI anticancer screen, dose series, 48 h

SMILES | GI50 [µM] | TGI
CC(=O)OCC1OC(OC2CC3C(C)(C)C(OC(C)=O)CC[C@]3(C)C3CCC45CC4(CC[C@H]5C(C)CC(O)[C@@H](O)C(C)(C)O)[C@]23C)C(O)C(O)C1O (stereo partly drawn) | 5.24 | 14 µM and 17.4 µM
Cc1ccc(S(=O)(=O)NC(=O)NC(Cc2ccccc2)C(=O)O)cc1 (stereo not drawn) |  | > 100 µM
C[C@]12CC[C@H](O)CC1=CC[C@@H]1C2CC[C@]2(C)c3nn(-c4ccc(F)cc4)nc3CC12 (stereo partly drawn) |  | > 100 µM
CC(=O)[CH-]C(=O)c1ccccc1.CC(=O)[CH-]C(=O)c1ccccc1.CC(=O)[CH-]C(=O)c1ccccc1.[Tl+3] | 46.2 | > 100 µM
COc1ccccc1C1=C2C(=O)N(C)C(c3ccccc3OC)=C2C(=O)N1C |  | > 100 µM
C/C=C(\C)C(=O)N[C@H]1[C@@H](OC(C)=O)C[C@]2(C)C3CC[C@@]4(C)C(CC[C@@H]4C(C)N(C)C)C3CCC2[C@H]1O (stereo partly drawn) | 5.34 | 19.8 µM
O=C(Nc1ccc(-n2cc(-c3ccncc3)c(-c3ccc(Cl)c(O)c3)n2)cc1)Nc1cc(C(F)(F)F)cc(C(F)(F)F)c1 | 1.71 | 4 µM
Cc1c(NC(=S)N/N=C\C(=N/NC(=S)Nc2c(C)n(C)n(-c3ccccc3)c2=O)c2ccccc2)c(=O)n(-c2ccccc2)n1C |  | > 100 µM
N=C1c2nc3n(c2C(=O)c2nc4n(c21)CCCC4)CCCC3 | 2.31 | 5.31 µM
Cc1ccc2ccc(=O)oc2c1 |  | > 100 µM
CN(C)CCCN=C(N)N |  | > 100 µM
CCOP(=O)(CC1CC(O)(CNc2cc(Cl)nc(N)n2)C1)OCC (stereo not drawn) |  | > 100 µM
N#Cc1nc(C(F)(F)F)oc1N |  | > 100 µM
C1CNCCNCCNCCN1 |  | > 100 µM
Cc1cccc(C)c1NC(=O)/C(Cl)=C(/Cl)C(=O)O |  | 68.8 µM
COc1ccc2c(c1)nc(N)c1c3cc(OC)c(OC)cc3cn21 | 10.9 | 23.2 µM
CC(C)=NNc1cnnc2ccc([N+](=O)[O-])cc12 |  | > 100 µM
COc1ccc(CNc2nc3cc(N)cc(N)c3nc2-c2ccccc2)cc1OC | 21.3 | 48.6 µM
C=C(Cl)COC(=O)Nc1cccc(Cl)c1 |  | > 100 µM
Cc1cc(C)c(O)c(CNCCCCCCNCc2cc(C)cc(C)c2O)c1 | 1.59 | 3.83 µM
O=c1[nH]nc(-c2ccc([N+](=O)[O-])cc2)n1/N=C/c1ccc([N+](=O)[O-])cc1 |  | > 100 µM
NC(Cc1ccccc1)=NCC(=O)O |  | > 100 µM

SMILES | GI50 [µM] | TGI
CC(=O)OC(CC(C)C)P1(=O)N(CC(C)(C)C)[C@@H]2CCCC[C@H]2N1CC(C)(C)C (stereo partly drawn) |  | 25.7 µM
O=C(NC1CC1)c1ccc(-c2nc3ccc4[nH]ncc4c3c3c2CCCC3)cc1 | 3.08 | 32.3 µM
O=C(c1cc(F)c(Cl)cc1Cl)N1N=C(c2ccccc2)CC1(O)c1ccccc1 (stereo not drawn) | 32.9 | > 100 µM
COc1ccc(C2S/C(=C\c3cc(OC)c(OC)c(OC)c3)C(=O)N2NC(=O)Cc2ccccc2)cc1 (stereo not drawn) |  | > 100 µM
CCSCC(=O)N1CCc2c([nH]c3ccccc23)C1=O |  | > 100 µM
Cc1ccccc1C(=O)C#Cc1cn(C2CC(O)C(CO)O2)c(=O)[nH]c1=O (stereo not drawn) |  | > 100 µM
OCCN1CN(c2nc(N3CN(CCO)C3)nc(N3CN(CCO)C3)n2)C1 |  | > 100 µM
N#CN=C1c2ccccc2C(=NC#N)c2cc(CO)ccc21 |  | > 100 µM
CCN(CC)c1ccc(/C=c2\nc(-c3ccccc3)n3c2nc2ccccc23)cc1 |  | 44.3 µM
S=c1nc(Oc2ccc(Cl)c(Cl)c2)[nH]c(=S)[nH]1 |  | 74.3 µM
CN(C)CC(/C(Cc1ccccc1)=N\NC(=O)c1ccncc1)c1ccccc1 (stereo not drawn) |  | > 100 µM
O=[N+]([O-])c1ccc(-c2nc(N(CCO)CCO)c3ccccc3n2)o1 | 0.164 | 0.603 µM
COC(=O)c1c(O)ccc2c1c1c(n2Cc2ccc(OC)cc2)C(=O)c2ccccc2C1=O |  | > 100 µM
CC(=O)Nc1ccc(N2C(=O)CS(=O)(=O)C2c2cccc(Oc3ccccc3)c2)cc1 (stereo not drawn) |  | 36 µM
COc1ccc2c(c1)C1Oc3ccccc3CC1(O)CO2 (stereo not drawn) |  | > 100 µM
CC1(C)CC(=O)C2=C(C1)NC(SCC(=O)O)=C(C#N)C2c1ccc(Br)cc1 (stereo not drawn) |  | > 100 µM
COc1ccc(-c2cc(C3CC3)nc(SCC(=O)O)c2C#N)cc1 |  | > 100 µM
O=C(O)C(F)(F)C(F)(F)C(F)(F)C(F)(F)C(=O)O |  | > 100 µM
COc1c(C)c2c(c(O)c1C/C=C(\C)CCC(=O)OCCN1CCOCC1)C(=O)OC2 | 0.696 | > 100 µM
OCc1c2c(cc3c1CC1(C3)Cc3cc4c(c(CO)c3C1)CCC4)CCC2 |  | 38.5 µM
COc1cc(C(=O)O[C@H](C(=O)NCCNC(=O)[C@@H](OC(=O)c2cc(OC)cc3c(C)cccc23)[C@]2(C)CO2)[C@]2(C)CO2)c2cccc(C)c2c1 | 0.707 | 1.97 µM
CC1=NC2(CCCCC2)N(Cl)C(=O)C1SC#N (stereo not drawn) |  | 32.7 µM

SMILES | GI50 [µM] | TGI
NNC(=O)Cc1cccnc1 |  | > 100 µM
O=C1C(=Cc2ccco2)C(=O)C2CCCCC12 (stereo not drawn) |  | > 100 µM
COC(=O)C1=C(O)C(C(=O)OC)[C@]2(O)[C@H](C(=O)OC)[C@H]1C[C@@H](c1cccc(OC)c1)[C@H]2C(=O)OC (stereo partly drawn) |  | 92.9 µM
O=C1CCCCCCCCCCC(=O)C2CCOCCOCCOCCC1Cc1cccc(n1)C2 |  | > 100 µM
COc1ccc(C[C@H]2NC(=O)/C=C/C[C@@H]([C@H](C)[C@H]3O[C@@H]3c3ccccc3)OC(=O)[C@H](CC(C)C)OC(=O)[C@H](C)CNC2=O)cc1 |  | > 7.91e-05 µM
CC1Cc2c(N)nc(NN)nc2NC1=O (stereo not drawn) |  | > 100 µM
O=C(Nc1ccccc1)c1cc(S(=O)(=O)Nc2n[nH]c(=O)[nH]2)c(SSc2cc(Cl)c(C(=O)Nc3ccccc3)cc2S(=O)(=O)Nc2n[nH]c(=O)[nH]2)cc1Cl |  | > 100 µM
O=C(Nc1ccc(Cl)cc1)c1cccc([N+](=O)[O-])c1O |  | 55.3 µM
CC(=O)C1CC2(c3ccc(C)cc3)C(c3ccc(C)cc3)=C(c3ccc(C)cc3)C1(c1ccc(C)cc1)S2=O (stereo not drawn) | > 100 | > 100 µM
COC(=O)COc1ccc(/C=C2\N=C(c3ccccc3)N(c3cc(C(F)(F)F)ccc3Cl)C2=O)cc1 | > 100 | > 100 µM
CCCCCCCCCCC(C)CCCCCCC(=O)OCC(COP(=O)([O-])OCC[N+](C)(C)C)OC(=O)CCCCCCC(C)CCCCCCCCCC (stereo not drawn) |  | > 100 µM
CCOC(=O)/C(=C\c1ccc(OCc2ccccc2)c(OC)c1)C(=O)c1ccccc1 |  | > 100 µM
CC1(CO)OC1COCc1ccccc1 (stereo not drawn) |  | > 100 µM
O=C1/C(=C/c2ccc(O)c([N+](=O)[O-])c2)CCC/C1=C\c1ccc(O)c([N+](=O)[O-])c1 |  | 50 µM and 32 µM
OCC(O)C(O)C(O)C1SC(c2ccccc2)=NN1c1ccccc1 (stereo not drawn) |  | > 100 µM
O=S(=O)(O)c1ccc2c(N=Nc3ccccc3)c(O)c(S(=O)(=O)O)cc2c1 |  | > 100 µM
Cc1ccccc1CN1CC2=C(CCN(Cc3ccccc3)C2=O)N2CCN=C12 |  | > 100 µM
c1ccc2c(c1)CCN(C1=NCCO1)C2 |  | > 10 µM
CC1(CCc2ccccc2)CC1(Br)Br (stereo not drawn) |  | > 100 µM
Cc1nc2c(=O)[nH]c(=O)n(C)c2[nH]c1=O |  | > 100 µM
COc1ccc2nc(-c3ccccc3)cc(Nc3ccc(C(C)=O)cc3)c2c1 | 3.99 | 19 µM
OC(C1=C/C(=C\c2ccncc2)c2ccccc21)c1ccncc1 (stereo not drawn) |  | 43.1 µM

SMILES | GI50 [µM] | TGI
N#Cc1ccccc1NC(=O)/C(=N\NC(=O)c1ccncc1)C(c1cnc2ccc([N+](=O)[O-])cc2n1)[N+](=O)[O-] (stereo not drawn) |  | > 100 µM
CCN(CC)c1ccc2c(c1)Oc1ccc(N(C(C)=O)c3ccccc3)cc1C21OC(=O)c2ccccc21 (stereo not drawn) |  | > 100 µM
CC(C)=CC(=O)Oc1ccc([N+](=O)[O-])cc1 |  | > 100 µM
COC(=O)c1ccc(CCC2=CC(=O)C(Br)=CC2=O)cc1 |  | > 73 µM
c1ccc(C(=NNc2nc3ccccc3o2)c2ccccn2)nc1 | 0.048 | 
COC(=O)NC/C=C\c1nc(CC/C=C\C(=O)OC2CC3CC(=O)O[C@H](/C=C/CC(C)C)C[C@H]4CCC(C)C(C[C@H](OC)CC(C2)O3)O4)co1 (stereo partly drawn) | 8.95 | > 100 µM
COC(=O)C1=COC(C)C2C[n+]3ccc4c([nH]c5ccccc54)c3CC12 (stereo not drawn) |  | > 100 µM
O=[N+]([O-])c1ccc(Sc2c3ccccc3nc3ccccc23)cc1 |  | > 100 µM
OC12C3C4CC5C(C4[C@@H]1Br)C2[C@@](O)(c1c(F)c(F)c(F)c(F)c1F)C53 (stereo partly drawn) |  | > 100 µM
Cc1ncc([N+](=O)[O-])n1CCNS(=O)(=O)CCCn1ccnc1[N+](=O)[O-] |  | > 100 µM
COc1cc2c(cc1OC)C1=Cc3ccc(OC)c(OC)c3C(C#N)N1CC2 (stereo not drawn) |  | > 100 µM
CC(C)=CC(C)C(C(O)CCC1(c2ccoc2)OCCO1)S(=O)(=O)c1ccccc1 (stereo not drawn) |  | > 100 µM
O=C1CCCCCCCC/C=C/CCC(c2ccco2)O1 (stereo not drawn) | 10.8 | > 100 µM
C\C=C/C=C/C=C/C(=O)O |  | > 100 µM
Cc1ccc(S(=O)(=O)N(CC(O)c2ccccc2)c2ccccc2F)cc1 (stereo not drawn) |  | 43.3 µM
NCCCC(=O)Nc1ccncc1 | > 100 | > 100 µM
C=CC[C@H]1C[C@@]2(C)OC[C@H](C(C)C)N2C1=O |  | > 100 µM
c1ccc2c(c1)nc1n2CCNC1 |  | > 100 µM
Cc1ccc(C(=O)Cc2nc3ncccc3[nH]c2=O)cc1 |  | > 100 µM
NCCCN(CCCN)CCCNCc1c2ccccc2c(CNCCCN(CCCN)CCCN)c2ccccc12 |  | 31 µM
COc1cc(Cl)cc(-c2nn(C(=O)NCCN3CCN(C)CC3)cc2-c2ccncc2)c1 | 41.7 | > 100 µM
Nc1ccccc1/C=C\c1ccccc1 |  | > 100 µM
